# Measured values as given in paper PMC4336329 (PLoS ONE, 2015).
# Out of some 310,000 compounds screened, about 14,000 (4.5%) showed an effect of 50% or more. The effect is printed as a negative number. This is one part of the list.
# Molecular target: human ether-à-go-go-related gene (hERG) potassium channel (human, UniProt Q12809)
# Assay: primary screen, population patch clamp on CHO cells stably expressing hERG
# 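Further: peak tail current of the secondary pulse compared with the same well before compound.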
# Chain of human ether-à-go-go-related gene (hERG) potassium channel (Q12809 whole entry, looked up): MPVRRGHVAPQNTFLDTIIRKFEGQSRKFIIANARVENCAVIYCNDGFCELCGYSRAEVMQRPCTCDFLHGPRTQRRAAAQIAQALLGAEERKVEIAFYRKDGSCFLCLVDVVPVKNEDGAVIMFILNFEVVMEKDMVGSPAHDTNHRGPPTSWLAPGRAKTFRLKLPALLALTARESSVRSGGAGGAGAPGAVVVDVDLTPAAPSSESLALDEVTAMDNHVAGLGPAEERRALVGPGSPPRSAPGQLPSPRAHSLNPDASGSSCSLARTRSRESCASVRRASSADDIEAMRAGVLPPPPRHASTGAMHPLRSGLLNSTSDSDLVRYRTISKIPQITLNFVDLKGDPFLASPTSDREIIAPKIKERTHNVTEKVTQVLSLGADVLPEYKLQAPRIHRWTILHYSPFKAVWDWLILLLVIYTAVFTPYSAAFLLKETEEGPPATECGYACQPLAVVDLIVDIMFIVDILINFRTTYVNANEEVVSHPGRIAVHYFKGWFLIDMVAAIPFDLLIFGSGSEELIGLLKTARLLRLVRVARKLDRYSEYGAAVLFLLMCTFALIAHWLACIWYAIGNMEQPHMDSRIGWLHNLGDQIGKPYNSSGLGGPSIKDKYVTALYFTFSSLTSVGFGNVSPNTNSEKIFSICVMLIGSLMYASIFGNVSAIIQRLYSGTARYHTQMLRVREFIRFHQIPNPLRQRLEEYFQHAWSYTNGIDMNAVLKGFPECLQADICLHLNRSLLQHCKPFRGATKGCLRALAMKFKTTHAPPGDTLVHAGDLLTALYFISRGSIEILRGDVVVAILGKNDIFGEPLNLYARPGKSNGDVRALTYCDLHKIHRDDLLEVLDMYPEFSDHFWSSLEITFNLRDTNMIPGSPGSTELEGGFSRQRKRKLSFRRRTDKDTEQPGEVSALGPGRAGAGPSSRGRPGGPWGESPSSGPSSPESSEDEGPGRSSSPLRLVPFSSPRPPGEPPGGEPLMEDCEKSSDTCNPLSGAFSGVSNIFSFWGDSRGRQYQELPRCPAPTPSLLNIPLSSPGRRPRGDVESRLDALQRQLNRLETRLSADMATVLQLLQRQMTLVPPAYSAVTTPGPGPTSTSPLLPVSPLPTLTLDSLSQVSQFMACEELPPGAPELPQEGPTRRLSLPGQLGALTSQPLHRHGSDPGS
row,Compound,"hERG current change (%, negative = inhibition) at 10uM [%]"
1,O=C(CCc1ccccc1F)N1CCN(c2ccccc2)CC1,12
2,COc1cc([N+](=O)[O-])cc(/C=N/NC(=O)CSc2nnc(-c3ccccc3)n2C)c1O,28.8
3,OC(C#CCN1CCOCC1)(c1ccccc1)C1CCCCC1 (stereo not drawn),13.6
4,Cc1c(Cl)cccc1NC(=O)NCc1ccccn1,15.1
5,COc1ccccc1-c1cc(C(=O)NCc2ccc(Cl)cc2)no1,3.64
6,Cn1c(SCC(=O)Nc2ccccc2F)nnc1-c1cccnc1,-10.4
7,Cc1ccccc1CN1CCN(S(=O)(=O)c2ccc(Cl)s2)CC1,3.24
8,CC(C)c1ccc(NC(=O)C2CCCN(S(=O)(=O)c3ccc4c(c3)C(C)(C)C(=O)N4C)C2)cc1 (stereo not drawn),-1.88
9,COc1ccc(CNC(=O)COc2ccc(S(=O)(=O)N3CCOCC3)cc2C)cc1,-18.4
10,C/C(=N/NC(=O)CNC(=O)/C=C/c1ccco1)c1ccc(Cl)cc1,-4.77
11,CC1(C)C[C@@H]2C[C@@](C)(CN2C(=O)c2cc(COc3cccc(C(F)(F)F)c3)on2)C1,11.1
12,O=C(COc1ccccc1)OCC(=O)c1ccc(O)cc1O,17.5
13,CC1(C2CC2)NC(=O)N(CC(=O)N2CCN(S(=O)(=O)c3ccc(F)c(F)c3)CC2)C1=O (stereo not drawn),5.29
14,CCN(CC(=O)Nc1c(F)cccc1F)C(=O)Cn1c(=O)cnc2ccccc21,6.73
15,COc1cc(OC)c(NC(C)C(=O)NCc2ccccc2)cc1Cl (stereo not drawn),8.66
16,COc1cc2nc(COc3ccc(C#N)cc3)n(CC#N)c(=O)c2cc1OC,-50.7
17,Cc1ccc(Nc2nc(Cl)nc(N(C)C#N)n2)cc1,6.93
18,COc1ccc(N2CCN(Cc3cc(=O)oc4ccc5ccccc5c34)CC2)cc1,3.87
19,Cc1ccc2c(C)c(C(=O)N3CCN(Cc4ccccn4)CC3)oc2c1C,-23.1

row,Compound,"hERG current change (%, negative = inhibition) at 10uM [%]"
1,CCN(CC)S(=O)(=O)c1ccc(OC)c(NC(=O)c2ccc3c(c2)OCO3)c1,-3.23
2,Nc1ccc(C#Cc2ccc3c(=O)c4ccccc4oc3c2)cc1,21.8
3,Cc1cc(C(F)(F)F)c(C#N)c(SCC(=O)NC(C)(C)C)n1,-3.9
4,CCCC(=O)Nc1ccc2oc(=O)ccc2c1,6.68
5,COc1ccc(CCNC(=O)Cc2ccc(Cl)cc2)cc1OC,24.3
6,Cc1cccc(OCCCC(=O)NCC(=O)Nc2cccc(C)c2C)c1,8.44
7,Cc1cc2ncn(C3CC(=O)N(C)C3=O)c2cc1C (stereo not drawn),7.19
8,O=C(NC(Cc1ccccc1)C(=O)O)c1ccc(S(=O)(=O)N2CCCCC2)cc1 (stereo not drawn),23.7
9,Cc1c(NC(=S)N/N=C/c2ccc(N(C)C)cc2)c(=O)n(-c2ccccc2)n1C,19
10,CN(C(=O)Cc1c(C(=O)O)n(C)c2ccccc12)c1ccc(Cl)cc1,21.7
11,O=C(C[N+]12CCC(CC1)C(CO)C2)c1ccc(Br)cc1.[Br-] (stereo not drawn),-3.89
12,CC(=O)Nc1ccc(OCC(=O)N2CCC(Cc3ccccc3)CC2)cc1,-26.4
13,CCC1CN(C(=O)N2CCC(C(=O)NCc3cccc(F)c3)CC2)c2ccccc2O1 (stereo not drawn),-9.87
14,O=C(CCNC(=O)c1ccco1)NCCc1ccc(Cl)cc1,-1.83
15,COc1ccc(NC(=O)N(CCCN2CCOCC2)Cc2cccnc2)c(OC)c1,5.99
16,O=C(CSc1nnc2n1CCCN2)c1ccc(Cl)cc1,-10.3
17,CCOc1ccc2oc(C(=O)Nc3cc(C)ccn3)c(C)c2c1,-0.308
18,COc1ccc(OC)c(S(=O)(=O)N2CCC(C(=O)NCc3ccccc3OC)CC2)c1,-16.3
19,O=C(NC1CC1)c1cc2c(s1)-c1ccccc1OC2,12.6

row,Compound,"hERG current change (%, negative = inhibition) at 10uM [%]"
1,COC(=O)C(CSCc1ccccc1)NC(=O)CSc1nc(N)cc(=O)[nH]1 (stereo not drawn),33.5
2,Cc1cc(C)c2[nH]c(=O)c(C(c3nnnn3Cc3ccc4c(c3)OCO4)N3CCCCC3)cc2c1 (stereo not drawn),-4.85
3,O=C1Nc2ccccc2/C1=N/N=C/c1cccc(O)c1,-7.68
4,Cc1cc2oc(=O)cc(COC(=O)c3n[nH]c4ccccc34)c2cc1C,1.28
5,O=C(COc1ccc(Br)cc1Cl)NC(=O)NC1CCCC1,-9.03
6,Cc1ccc(C)c(OCC(=O)N/N=C\c2cccn2C)c1,16.5
7,CCOc1cnn(-c2ccccc2)c(=O)c1Cl,18.4
8,CN(C)CCCNC(=O)C1(O)c2cc(Br)ccc2NC(=O)N1c1ccc(Cl)cc1 (stereo not drawn),22.4
9,COc1ccc(Nc2ncnc3sccc23)c(OC)c1,18.1
10,CNC(=O)CSc1nnc(COc2ccc(Cl)cc2)n1CCOC,-11.8
11,O=[N+]([O-])c1cccnc1N1CCC(c2cc(-c3ccc(Cl)cc3Cl)n[nH]2)CC1,0.131
12,CSc1sc(C(=O)N2CCCCC2)c(-c2cccs2)c1C#N,-27.7
13,CCOC(=O)c1ccc(NC(=S)N2CCSC2c2ccc(Br)cc2)cc1 (stereo not drawn),5.4
14,CC1CN(c2nc3c(c(=O)n(Cc4ccc(Cl)cc4)c(=O)n3C)n2C)CC(C)O1 (stereo not drawn),-31.2
15,Cc1cc(C)c(S(=O)(=O)O)c(C)n1,15.1
16,CCOc1ccc2[nH]cc(C(=O)O)c(=O)c2c1,-1.35
17,COc1ccccc1N1CCN(C(c2ccccc2)c2nnnn2CCc2ccccc2)CC1.Cl (stereo not drawn),14.9
18,Cc1ccc(C)c(OCC(=O)Nc2ccc3c(c2)OCO3)c1C,-5.11
19,COC(=O)c1ccc(O)c(Sc2cc(C(=O)OC)ccc2O)c1,5.37
